T1: Human-CD24-His (human, UniProt P25063 27-59)
T1 construct: also called CD24 protein; not shown: His tag
T1 chain (looked up): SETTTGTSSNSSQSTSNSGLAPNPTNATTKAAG

B1: DNT-D (other)
light 1: EVQLVESGGGLVQPGGSLRLSCAASGITFSRSVMGWFRQAPGKLRELVAGITSDDNTDYADSVKGRFTISRDNSKNTLYLQMNSLRAEDTAVYYCNILPDSRLGWGQGTLVTVSSGGGGSGGGGSGGGGSQVQLVQSGSELKKPGASVKVSCKASGYIFTDYAIHWVRQAPGQGLEWMGFINTATGEPTYADDFKGRFVFSLDTSVSTAYLQISSLKAEDTAVYFCTSGVHWGQGTLVTVSSRTVAAPSVFIFPPSDEQLKSGTASVVCLLNNFYPREAKVQWKVDNALQSGNSQESVTEQDSKDSTYSLSSTLTLSKADYEKHKVYACEVTHQGLSSPVTKSFNRGEC
heavy 1: DIQMTQSPSTLSASVGDRVTITCSASSSVSSMHWYQQKPGKAPKLLIYSTSNLASGVPSRFSGSGSGTEYTLTISSLQPDDFATYYCHHWTSYMYTFGGGTKVEIK[human IgG1 constant region with changes not spelt out]GGSGGGGSGGGGSGGGGSGIPPHVQKSVNNDMIVTDNNGAVKFPQLCKFCDVRFSTCDNQKSCMSNCSITSICEKPQEVCVAVWRKNDENITLETVCHDPKLPYHDFILEDAASPKCIMKEKKKPGETFFMCSCSSDECNDNIIFSEEYNTSNPD
heavy 2: QVQLVQSGSELKKPGASVKVSCKASGYIFTDYAIHWVRQAPGQGLEWMGFINTATGEPTYADDFKGRFVFSLDTSVSTAYLQISSLKAEDTAVYFCTSGVHWGQGTLVTVSS[human IgG1 constant region with changes not spelt out]GGSGGGGSGGGGSGGGGSGIPPHVQKSVNNDMIVTDNNGAVKFPQLCKFCDVRFSTCDNQKSCMSNCSITSICEKPQEVCVAVWRKNDENITLETVCHDPKLPYHDFILEDAASPKCIMKEKKKPGETFFMCSCSSDECNDNIIFSEEYNTSNPD
light 2: DIQMTQSPSTLSASVGDRVTITCSASSSVSSMHWYQQKPGKAPKLLIYSTSNLASGVPSRFSGSGSGTEYTLTISSLQPDDFATYYCHHWTSYMYTFGGGTKVEIKRTVAAPSVFIFPPSDEQLKSGTASVVCLLNNFYPREAKVQWKVDNALQSGNSQESVTEQDSKDSTYSLSSTLTLSKADYEKHKVYACEVTHQGLSSPVTKSFNRGEC
notes: also called constructed antibody DNT-D; trifunctional antibody
B2: DNT-E (other)
light: DIQMTQSPSTLSASVGDRVTITCSASSSVSSMHWYQQKPGKAPKLLIYSTSNLASGVPSRFSGSGSGTEYTLTISSLQPDDFATYYCHHWTSYMYTFGGGTKVEIKRTVAAPSVFIFPPSDEQLKSGTASVVCLLNNFYPREAKVQWKVDNALQSGNSQESVTEQDSKDSTYSLSSTLTLSKADYEKHKVYACEVTHQGLSSPVTKSFNRGEC
heavy 1: EVQLVESGGGLVQPGGSLRLSCAASGITFSRSVMGWFRQAPGKLRELVAGITSDDNTDYADSVKGRFTISRDNSKNTLYLQMNSLRAEDTAVYYCNILPDSRLGWGQGTLVTVSSGGGGSGGGGSGGGGSQVQLVQSGSELKKPGASVKVSCKASGYIFTDYAIHWVRQAPGQGLEWMGFINTATGEPTYADDFKGRFVFSLDTSVSTAYLQISSLKAEDTAVYFCTSGVHWGQGTLVTVSS[human IgG1 constant region with changes not spelt out]GGSGGGGSGGGGSGGGGSGIPPHVQKSVNNDMIVTDNNGAVKFPQLCKFCDVRFSTCDNQKSCMSNCSITSICEKPQEVCVAVWRKNDENITLETVCHDPKLPYHDFILEDAASPKCIMKEKKKPGETFFMCSCSSDECNDNIIFSEEYNTSNPD
heavy 2: QVQLVQSGSELKKPGASVKVSCKASGYIFTDYAIHWVRQAPGQGLEWMGFINTATGEPTYADDFKGRFVFSLDTSVSTAYLQISSLKAEDTAVYFCTSGVHWGQGTLVTVSS[human IgG1 constant region with changes not spelt out]GGSGGGGSGGGGSGGGGSGIPPHVQKSVNNDMIVTDNNGAVKFPQLCKFCDVRFSTCDNQKSCMSNCSITSICEKPQEVCVAVWRKNDENITLETVCHDPKLPYHDFILEDAASPKCIMKEKKKPGETFFMCSCSSDECNDNIIFSEEYNTSNPD
notes: also called constructed antibody DNT-E; trifunctional antibody
B3: CNT-F (other)
light 1: EVQLVESGGGLVKPGGSLKLSCTASGFTFSSYVMSWVRQTPEKRLEWVATINDGGSYTYYPDNLKGRFTISRDNAKNNLYLQMSHLRSEDTARYYCSVLRRGNAMDYWGQGTSVTVSSRTVAAPSVFIFPPSDEQLKSGTASVVCLLNNFYPREAKVQWKVDNALQSGNSQESVTEQDSKDSTYSLSSTLTLSKADYEKHKVYACEVTHQGLSSPVTKSFNRGECGGGGSGGGGSGGGGSGGGGSEVQLVESGGGLVQPGGSLRLSCAASGITFSRSVMGWFRQAPGKLRELVAGITSDDNTDYADSVKGRFTISRDNSKNTLYLQMNSLRAEDTAVYYCNILPDSRLGWGQGTLVTVSS
heavy 1: DIVMTQSPSSLTATARERVTMSCKSSQSLLNSGNQKNYLTWYQQKPGQPPKLLIYWASTRESGVPDRFTGSGSGTDFTLTVSSVQAEDLAVYYCQNAYFYPFTFGSGTKLEIK[human IgG1 constant region with changes not spelt out]GGSGGGGSGGGGSGGGGSGIPPHVQKSVNNDMIVTDNNGAVKFPQLCKFCDVRFSTCDNQKSCMSNCSITSICEKPQEVCVAVWRKNDENITLETVCHDPKLPYHDFILEDAASPKCIMKEKKKPGETFFMCSCSSDECNDNIIFSEEYNTSNPD
heavy 2: EVQLVESGGGLVKPGGSLKLSCTASGFTFSSYVMSWVRQTPEKRLEWVATINDGGSYTYYPDNLKGRFTISRDNAKNNLYLQMSHLRSEDTARYYCSVLRRGNAMDYWGQGTSVTVSS[human IgG1 constant region with changes not spelt out]GGSGGGGSGGGGSGGGGSGIPPHVQKSVNNDMIVTDNNGAVKFPQLCKFCDVRFSTCDNQKSCMSNCSITSICEKPQEVCVAVWRKNDENITLETVCHDPKLPYHDFILEDAASPKCIMKEKKKPGETFFMCSCSSDECNDNIIFSEEYNTSNPD
light 2: DIVMTQSPSSLTATARERVTMSCKSSQSLLNSGNQKNYLTWYQQKPGQPPKLLIYWASTRESGVPDRFTGSGSGTDFTLTVSSVQAEDLAVYYCQNAYFYPFTFGSGTKLEIKRTVAAPSVFIFPPSDEQLKSGTASVVCLLNNFYPREAKVQWKVDNALQSGNSQESVTEQDSKDSTYSLSSTLTLSKADYEKHKVYACEVTHQGLSSPVTKSFNRGEC
notes: also called constructed antibody CNT-F; trifunctional antibody

Assays:
[1] = molecular target: T1, Human-CD24-His; experiment: ELISA, Human-CD24-His coated at 1 ug/mL, HRP goat anti-human IgG-Fc
Protocol: Human-CD24-His was diluted to 1 μg/mL with PBS buffer at pH 7.4, added into the 96-well ELISA plate at 100 μL per well, coated overnight at 4° C., and blocked with 1% BSA blocking solution for 1 hour. The plate was washed 3 times with PBST, and the constructed antibodies were diluted to 20 μg/mL with 0.5% BSA sample diluent as the starting concentration, and then diluted by 3-fold gradient (11 gradients in total) and incubated at 37° C. for 1 h at 100 μL per well. The plate was washed 3 times with PBST, and then HRP-labelled goat anti-human IgG-Fc (jackson Cat: 109-035-098) was diluted with the sample diluent at 1:10000. 100 μL was added into each well, and incubated at room temperature for 1 hour. A negative control (blank well and IgG1 isotype control) and a positive control were set, and the positive control was a CD24 monoclonal antibody (CD24 sequence consists of SEQ ID No. 12 and SEQ ID No. 34). The plate was washed 4 times with PBST, and 100 μL of TMB substrate was added into each well, and incubated at room temperature without light for 10 minutes. 100 μL of 1 M HCl solution was added into each well to terminate the color development reaction. The absorbance value of each well in the 96-well plate was determined by selecting the wavelength of 450 nm and the reference wavelength of 570 nm on a multifunctional enzyme marker, and the absorbance value (OD)=OD₄₅₀ₙₘ−OD₅₇₀ₙₘ. The logarithm of the concentration of the constructed antibodies were taken as the abscissa, and the measured absorbance value of each well was taken as the ordinate, and the Sigmoidaldose-response (Variable Slope) method (GraphPad Prism software, GraphPad Software, San Diego, California) was selected for nonlinear regression to obtain the binding curve of the target antibodies to the CD24 protein.

[2] = molecular target: T2, TGFβ1 (UniProt P01137 part only, limits assumed); experiment: ELISA, TGFb1 coated at 1 ug/mL, HRP goat anti-human IgG-Fc
T2 construct: also called TGFβ1 protein
Protocol: TGFβ1 was diluted to 1 μg/mL with PBS buffer at pH 7.4, added into the 96-well ELISA plate at 100 μL per well, coated overnight at 4° C., and blocked with 1% BSA blocking solution for 1 hour. The plate was washed 3 times with PBST, and the constructed expressing antibodies were diluted to 20 µg/mL with 0.5% BSA sample diluent as the starting concentration, and then diluted by 3-fold gradient (11 gradients in total). A negative control (blank well and IgG1 isotype control) and a positive control were set, and the positive control was TGF-βR2 (Acro, Cat: TG2-H5252), and incubated at 37° C. for 1 h at 100 μL per well. The plate was washed 3 times with PBST, and then HRP-labelled goat anti-human IgG-Fc was diluted with the sample diluent at 1:10000. 100 μL was added into each well, and incubated at room temperature for 1 hour. The plate was washed 4 times with PBST, and 100 μL of TMB substrate was added into each well, and incubated at room temperature without light for 10 minutes. 100 μL of 1 M HCl solution was added into each well to terminate the color development reaction. The absorbance value of each well in the 96-well plate was determined by selecting the wavelength of 450 nm and the reference wavelength of 570 nm on a multifunctional enzyme marker, and the absorbance value (OD)=OD₄₅₀ₙₘ−OD₅₇₀ₙₘ. The logarithm of the concentration of the constructed antibodies were taken as the abscissa, and the measured absorbance value of each well was taken as the ordinate, and the Sigmoidaldose-response (Variable Slope) method (GraphPad Prism software, GraphPad Software, San Diego, California) was selected for nonlinear regression to obtain the binding curve of the target antibodies to the TGFβ1 protein.

Sequence of TGFβ1 (P01137 279-390 limits assumed): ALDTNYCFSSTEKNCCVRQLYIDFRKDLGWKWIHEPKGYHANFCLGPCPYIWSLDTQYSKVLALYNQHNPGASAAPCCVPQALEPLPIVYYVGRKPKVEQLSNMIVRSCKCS

EC50 (read off the curve) [1] [µg/mL] | EC50 (read off the curve) [2] [µg/mL] | Binder
~0.08 | – | B1
~0.03 | – | B2
– | ~0.3 | B3

Source: patent publication US20240336682A1 (SHENGHE CHINA BIOPHARMACEUTICAL, published 2024)
